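These data come from cells grown in 96-well plates and exposed to compound for 48 hours at five concentrations. GI50 marks 50% less growth. TGI: total growth inhibition.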
Test system: NCI-H322M lung
Experiment: DTP human tumour cell line panel, 48 h

With `Cc1cccc(N=C2NC(=O)C(CC(=O)Nc3cccc(C)c3C)S2)c1` (stereo unspecified) as the compound, how does the TGI read?
Its TGI is > 100 µM.

How did the TGI turn out when `CC1C(c2ccc3c(c2)OCO3)c2cc3c(cc2OC1N1CCOCC1)OCO3` (stereo unspecified) was run?
The TGI was > 100 µM.

`CCN(CC)c1cc2oc3cc(N)cc(=N)c-3nc2cc1C` was tested. Which GI50 did it give?
Its GI50 is 17.1 µM.

What about the TGI of the same compound?
Its TGI is 40 µM.

For `Nc1nc(Nc2ccccc2)sc1C(=O)c1c[nH]c2ccccc12`, which TGI is on record?
Its TGI is 23.3 µM.

For `O=c1nc(-c2ccccc2)cc(-c2ccccc2O)[nH]1`, which TGI is on record?
The TGI was > 100 µM.

Which TGI does the source give for `CCC(=O)Nc1ccc(N=NN(C)C)cc1` here?
Its TGI is > 100 µM.

`O=C(OCc1ccc2c(Cl)cc(Cl)c(O)c2n1)N1CCN(C(=O)c2cc3cc(F)ccc3[nH]2)CC1` was tested. Which GI50 did it give?
The GI50 was 5.02 µM.

And the TGI?
Its TGI is > 100 µM.

For `CCOC(=O)C1(C(=O)OCC)CCCN1C(=O)[C@H](CNC(=O)OC(C)(C)C)NC(=O)OCc1ccccc1`, which TGI is on record?
The TGI was > 100 µM.

What does the source list for `Nc1ccccc1SC1CC(=O)N(c2ccc(Cl)c(Cl)c2)C1=O` (stereo unspecified)?
GI50: 88 µM; TGI: > 100 µM

How did the TGI turn out when `O=C(O)CSC(NC(=O)C(C(F)(F)F)C(F)(F)F)(C(F)(F)F)C(F)(F)F` was run?
Its TGI is > 100 µM.

Which TGI does the source give for `COP(=O)(OC)C12CCOCCN1c1ccccc1C2=O` (stereo unspecified) here?
The TGI was > 100 µM.

`O=S1(=O)OCCOS(=O)(=O)C1Cl` was tested. Which TGI did it give?
Its TGI is > 100 µM.

For `O=C(OCc1ccccc1)C(Cc1ccccc1)N(Cc1ccccc1)Cc1ccccc1` (stereo unspecified), which TGI is on record?
The TGI was > 100 µM.

`COC(=O)C1(Cc2ccc3c(c2)CCC3)Cc2ccccc2C1=O` (stereo unspecified) was tested. Which TGI did it give?
Its TGI is > 100 µM.

With `COCOc1ccc(C2(O)Oc3cc(OCOC)ccc3C2C)c(O)c1` (stereo unspecified) as the compound, how does the TGI read?
The TGI was 32.4 µM.

`COC(=O)[C@H](C)NC(=O)[C@H](CSC)N1C(=O)N[C@@H](C(C)C)C1=O` was tested. Which TGI did it give?
Its TGI is > 100 µM.

Which TGI does the source give for `COc1cc(C(=O)C/C(CCC(=O)Nc2ccc(Cl)cc2Cl)=N/NC(=O)C(=O)NN)ccc1O` here?
Its TGI is > 100 µM.

How did the GI50 turn out when `C[C@]12CC[C@@H]3c4ccc(O)c([N+](=O)[O-])c4CC[C@H]3[C@@H]1CC[C@@H]2NS(=O)(=O)c1cccc(Br)c1` was run?
The GI50 was 3.3 µM.

And the TGI?
Its TGI is 11.7 µM.

For `CC(C)(C)OC(=O)n1c(-c2ccccc2F)cc(=O)c2cc3c(cc21)OCO3`, which TGI is on record?
The TGI was > 100 µM.

For `CSC(SC)=C1C(=O)N(c2ccccc2)N=C1C`, which TGI is on record?
Its TGI is > 100 µM.

`CC/C=C/C/C=C/C/C=C/C/C=C/C/C=C/C/C=C/CCC(=O)Nc1ccn([C@@H]2O[C@H](CO)[C@@H](O)C2(F)F)c(=O)n1` was tested. Which GI50 did it give?
Its GI50 is 2.72 µM.

What about the TGI of the same compound?
The TGI was 25.6 µM.

Which TGI does the source give for `Nc1ccc2[nH]cc(CCC(=O)O)c2c1` here?
The TGI was > 100 µM.

Which TGI does the source give for `Cc1cc(C(C)(C)C)cc(Cc2cc(C(C)(C)C)cc(Cc3cc(C(C)(C)C)cc(C)c3O)c2O)c1O` here?
The TGI was 22.8 µM.

Which TGI does the source give for `CC(C)(C)c1ccc(OCC(=O)O)c(Cl)c1` here?
The TGI was > 100 µM.

Which TGI does the source give for `CC1(C)OC2CC(=O)OCC23C1CC(=O)C1(C)C3CCC2(C)C(c3ccoc3)OC(=O)C3OC321` (stereo unspecified) here?
The TGI was > 125 µM.

How did the TGI turn out when `CCCCC#CS(=O)(=O)C(F)(F)F` was run?
The TGI was > 100 µM.

With `NC(=S)N/N=C/c1cc(-c2cccc(N)c2)ccn1` as the compound, how does the GI50 read?
The GI50 was 1.63 µM.

And the TGI?
Its TGI is > 23.9 µM.

For `C=C1C(=O)OC2/C=C(/C)C3(O)OC(C)(CC(OC(=O)C(C)C)C12)CC3OC(C)=O` (stereo unspecified), which TGI is on record?
Its TGI is > 100 µM.

For `CCOC(CN(C)C(=S)Nc1cccc2ccccc12)OCC`, which TGI is on record?
Its TGI is > 10 µM.

Which TGI does the source give for `COC(=O)C1=C(C)NC(C)=C([N+](=O)[O-])C1c1cccc(N=O)c1` (stereo unspecified) here?
Its TGI is > 100 µM.

`O=C(CSC(c1ccccc1)c1ccccc1)N/N=C/c1ccco1` was tested. Which GI50 did it give?
The GI50 was 2.21 µM.

What about the TGI of the same compound?
The TGI was > 8.82 µM.

`O=C(O)CC(NC(=O)/C(=C/c1ccccc1O)NC(=O)c1ccccc1)C(=O)O` (stereo unspecified) was tested. Which TGI did it give?
Its TGI is > 100 µM.

Which GI50 does the source give for `COc1ccc(Cc2cnc(NC(=O)c3ccc4c(c3)OCCO4)s2)cc1` here?
Its GI50 is 0.0721 µM.

And the TGI?
The TGI was 98 µM.

Which TGI does the source give for `CC1C(=O)OC2CC[N+]3([O-])CC=C(COC(=O)C(C)(O)C1(C)O)C23` (stereo unspecified) here?
The TGI was > 100 µM.

Which results are given for `c1csc(-c2c3ccc(=[N+]4CCCCC4)cc-3oc3cc(N4CCCCC4)ccc23)c1`?
GI50: 0.0366 µM; TGI: 0.162 µM

How did the TGI turn out when `O=C1CC(Sc2nc3ccc(I)cc3c(=O)n2Cc2ccccc2)C(=O)NN1` (stereo unspecified) was run?
The TGI was > 100 µM.

Which TGI does the source give for `Cc1cccc(C(C)C)c1NC(=O)C(=O)C(C(=O)c1ccccc1F)C1OC(=O)c2ccccc21` (stereo unspecified) here?
Its TGI is 46.8 µM.

For `O=C1C(Cl)=C(Nc2ccccc2O)C(=O)N1Cc1ccccc1`, which GI50 is on record?
The GI50 was 26.6 µM.

What about the TGI of the same compound?
Its TGI is 72.6 µM.

How did the TGI turn out when `CC(C)CCn1nc(N)c2nc3ccccc3nc21` was run?
The TGI was > 100 µM.

How did the TGI turn out when `C[C@]1(S(=O)(=O)c2ccccc2)C[C@H]2N(Cc3ccccc3)[C@@H]1CCC21OCCO1` was run?
The TGI was > 100 µM.

For `CCOC(=O)/C(=C/c1cccc(C#N)c1)N(CC)CC`, which TGI is on record?
Its TGI is > 100 µM.

For `Cc1cn([C@H]2C[C@](C)(CO)N(C)O2)c(=O)[nH]c1=O`, which TGI is on record?
Its TGI is > 100 µM.

Which TGI does the source give for `O=C(O)C12CC3(C(=O)O)CC(C(=O)O)(CC(C(=O)O)(C1)C3=O)C2=O` here?
Its TGI is > 100 µM.

Which results are given for `Cc1cc(C)n(-c2nnc3n2N=C(c2ccc(-c4ccccc4)cc2)CS3)n1`?
GI50: 4.91 µM; TGI: > 100 µM

With `COC(C(=O)[C@@H](O)[C@@H](C)O)[C@@H]1Cc2cc3cc(O[C@H]4C[C@@H](O[C@H]5C[C@@H](O)[C@H](O)C(C)O5)[C@H](O)C(C)O4)c(C)c(O)c3c(O)c2C(=O)[C@H]1O[C@H]1C[C@@H](O[C@H]2C[C@@H](O[C@H]3C[C@@H](O)[C@H](OC)C(C)O3)[C@@H](O)C(C)O2)[C@H](O)C(C)O1` (stereo partly specified) as the compound, how does the GI50 read?
Its GI50 is 0.0183 µM.

And the TGI?
Its TGI is > 33.3 µM.

`CC1=CC(=O)CC2(C)CCC(C(C)CC(=O)CC(C)C)CC12` (stereo unspecified) was tested. Which TGI did it give?
Its TGI is > 100 µM.

Which GI50 does the source give for `COc1ccc(-c2csc(NC(=O)CSc3nc(C)c(-c4ccccc4)n3Nc3ccccc3)n2)cc1` here?
Its GI50 is > 100 µM.

And the TGI?
The TGI was > 100 µM.

For `COc1cc(C2C(C(=O)Nc3cc(F)c(F)cc3F)=C(C)NC(C)=C2C(=O)Nc2cc(F)c(F)cc2F)ccc1O`, which TGI is on record?
The TGI was 90.9 µM.
